# Assay results as given in PubChem BioAssay AID1347073 (National Center for Advancing Translational Sciences (NCATS), 2019).
# The campaign covered roughly 45,000 compounds. About 200 (0.44%) were called active. Another 7% or so got no clear call; they are omitted. Calls come from the whole dose curve; as a rule, active = well fitted activation curve with a large enough effect; inconclusive = small, poorly fitted or top-dose-only effect; inactive = no such curve, though single readings can be large or run the other way. The list shows a part of the results.
# Assay: qHTS of TDP-43 Inhibitors: NCGC Sytravon Library Screen; note: 0% is about no effect; nearly all actives have a fitted effect of over 55% in size
# Conditions: yeast TDP-43 toxicity rescue, BacTiter-Glo growth, 24 h; series mostly up to 46.1 µM; growth rescue (activation): at the top concentration
# Summary of the method: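 TDP-43-expressing yeast, pregrown in raffinose, seeded at OD600 0.02 in galactose medium with compound for 24 hr at 30 deg C. Growth read by BacTiter-Glo luminescence, so rescue of toxicity appears as activation.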
row,SMILES,growth rescue (activation)
1,O=C(CNS(=O)(=O)c1c(F)cccc1F)NC1CCCc2ccccc21 (configuration not stated),inactive: -2.27%
2,Cc1ccc2c(c1)sc1nc(=O)n(-c3ccccc3)c(=O)n12,inactive: -13.6%
3,CC(C)(C)c1ccc(C(=O)Nc2ccc(C=C(C#N)C#N)cc2)cc1,inactive: 25.2%
4,Cc1ccc(OCc2cc(C(=O)N3CCN(C)C[C@@H]3c3ccccc3)no2)cc1C,inactive: 3.36%
5,COc1ccc(OC)c(/C=C(/C#N)c2nc(-c3ccc(-c4ccccc4)cc3)cs2)c1,inactive: 13%
6,CC[C@@H](C)[C@H](NS(=O)(=O)c1ccc(C)cc1)C(=O)N1CCC(C(=O)NCC(=O)O)CC1,inactive: 2.87%
7,Cc1sc(NC(=O)c2ccco2)c(C(Nc2ccccn2)c2ccccc2)c1C (configuration not stated),inactive: 4.62%
8,O=C(Nc1ccc(C(=O)O)cc1)/C(=C/c1cccc(Br)c1)NC(=O)c1ccco1,inactive: 4.2%
9,CC(NS(=O)(=O)c1ccc(NC(=O)N2CCCCC2)cc1)c1ccccc1 (configuration not stated),inactive: 21%
10,CCCc1nnc(NC(=O)CCC(=O)NCc2ccc(OC)cc2)s1,inactive: 9.9%
11,COc1ccc(CNC(=O)C(C)Sc2ccc(S(=O)(=O)N3CCOCC3)cn2)cc1 (configuration not stated),inactive: -1.03%
12,Cc1ccc(/C=N/NC(=O)Cc2cccn2C)s1,inactive: 6.93%
13,Cc1cc(CNC(=O)CC2C(=O)NCCN2Cc2ccccc2C(F)(F)F)on1 (configuration not stated),inactive: 11.2%
14,N#C/C(=C\C1=C(N2CCOCC2)C(=C\c2ccc(Cl)cc2)/CC1)C(=O)Nc1ccccc1F,inactive: -0.191%
15,Cc1ccccc1-c1csc(C(C)(O)c2ccc(F)c(F)c2)n1 (configuration not stated),inactive: 1.86%
16,Cc1ccc(S(=O)(=O)NCC(=O)OCC(=O)N2C(C)CCCC2C)cc1 (configuration not stated),inactive: -7.18%
17,CC(=O)OCC(=O)Nc1ccccc1OC(F)F,inactive: 1.98%
18,O=C(Cc1ccccc1[N+](=O)[O-])N1CCN(c2ccc(F)cc2)CC1,inactive: 33.8%
19,Cc1ccc(S(=O)(=O)N2CCCCC2)cc1C(=O)OC(C)C(=O)NCC1CCCCC1 (configuration not stated),inactive: 34.3%
20,O=C(CCC(=O)c1ccc(F)cc1)Nc1cccc(S(=O)(=O)Nc2cccc(Cl)c2)c1,inactive: 10.9%
21,C=CCNC(=S)NNC(=O)COc1c(Cl)cc(Cl)cc1Cl,inactive: 18.3%
22,COC(=O)[C@H](C)NC(=O)NCc1ccc(S(N)(=O)=O)cc1,inactive: 5.39%
23,S=C(CN1CCCC1=S)NCCc1ccccc1,inactive: 15.6%

row,SMILES,growth rescue (activation)
1,Cc1c(NC(=O)Nc2ccc([N+](=O)[O-])cc2)c(=O)n(-c2ccccc2)n1C,inactive: -1.15%
2,Cc1ccc(Nc2cc(C(=O)NCCCN3CCOCC3)c3ccccc3n2)c(C)c1,inactive: -10.6%
3,COc1cccc(S(=O)(=O)N2CCN(Cc3ccc4c(c3)OCO4)CC2)c1,inactive: 23.7%
4,CCCCC(=O)NC(=S)NNS(=O)(=O)c1ccccc1,inactive: -1.61%
5,COc1cc(NC(=O)COC(=O)C=C(C)C)c(C)cc1[N+](=O)[O-],inactive: 34.4%
6,Nc1nc(CSc2ccccc2)nc(N2CCCCC2)n1,inactive: -1.01%
7,Cc1ccc(NC2CCCN(C(=O)CCC3=NNC(=O)CC3)C2)cc1C (configuration not stated),inactive: -9.36%
8,CCN1C(C(=O)c2ccccc2)=C(Nc2ccccc2C)c2ccccc2S1(=O)=O,inactive: -6.85%
9,O=C(NOC(=O)c1ccccc1F)c1ccc(OC(F)F)cc1,inactive: -0.886%
10,COC(=O)c1ccc(C(=O)OC)c(NC(=S)N2CCN(c3ccccn3)CC2)c1,inactive: 0.535%
11,O=C(Nc1ccccc1Cl)NC1(C(=O)N2CCOCC2)CCCCC1,inactive: -5.02%
12,CCc1c(C)nc(N)nc1Cl,inactive: 0.0372%
13,Cc1nc2ccc(NS(=O)(=O)c3ccc4c(c3)OCCO4)cc2s1,inactive: 17.9%
14,O=C(OCC#CCSc1nnc(-c2ccncc2)o1)c1sc2ccccc2c1Cl,inactive: 23.5%
15,Cn1c(CCC(=O)OCC(=O)NCc2ccccc2Cl)nc(=O)c2ccccc21,inactive: 14.5%
16,CCCNc1nc2c(c(=O)[nH]c(=O)n2C)n1CCOc1ccccc1,inactive: 7.43%
17,Cc1cccc(NC(=O)Cn2c(=O)n(CC3CCCO3)c(=O)c3ccccc32)c1 (configuration not stated),inactive: 0.978%
18,Cc1cc(C(=O)N/N=C/c2cccnc2)n[nH]1,inactive: 3.92%
19,O=C(CCc1c[nH]c2ccccc12)N=Nc1c(O)[nH]c2ccccc12,inactive: 5.78%
20,O=C(CNC(=O)c1ccccc1F)NCc1ccncc1,inactive: 5.77%
21,CCN(CC)c1ccc(C(=O)NNC(=O)CCl)cc1,inactive: 13.5%
22,COC1=CC(=Cc2c(N)n3nc(CC(=O)N4CCOCC4)sc3nc2=O)C=C(OC)C1=O,inactive: -4.22%
23,CC1CCN(S(=O)(=O)c2cccc(S(=O)(=O)N3CCCC3)c2)CC1,inactive: 9.12%

row,SMILES,growth rescue (activation)
1,CCN(CC)S(=O)(=O)c1cccc(NC(=O)CN(C)Cc2cccc(OC)c2)c1,inactive: 1.64%
2,Cc1c(NS(=O)(=O)c2cccc3nsnc23)c(=O)n(-c2ccccc2)n1C,inactive: 0.509%
3,O=C(O)CCNc1nc(C(F)(F)F)nc2ccccc12,inactive: 4.98%
4,COCCN(C(=S)Nc1cccc(OC)c1)C1CCN(C(C)=O)CC1,inactive: 0.0992%
5,O=C(/C=C\c1ccc(-c2cccc([N+](=O)[O-])c2)o1)N1CCOCC1,inactive: 22.6%
6,O=C(c1ccc(Cl)cc1)N(Cc1cccs1)C1CCS(=O)(=O)C1 (configuration not stated),inactive: 6.46%
7,CCCCNC(C(=O)Nc1ccc([N+](=O)[O-])cc1Br)c1ccccc1 (configuration not stated),inactive: 0.992%
8,CC(NC(=O)/C(C#N)=C/c1ccc(C(=O)O)cc1)c1ccccc1 (configuration not stated),inactive: 1.23%
9,Cc1ccc(NC(=S)N2CCCC(O)C2)cc1 (configuration not stated),inactive: -0.129%
10,O=C(NC1CCCCCCC1)C1c2ccccc2C(=O)N1Cc1cccs1 (configuration not stated),inactive: -14.6%
11,COc1ccc(N2CCN(c3nc4ccccn4c(=O)c3C=O)CC2)cc1,inactive: 20.7%
12,COC(=O)c1sc(NC(=O)CSc2nnc(Cn3nnc4ccccc43)n2C)nc1C,inactive: 5.24%
13,CCCSc1ncc(Cl)c(C(=O)Nc2sc3c(c2C(=O)NCCOC)CCCC3)n1,inactive: 9.44%
14,CC(C)(C)c1ccc2c(c1)OC(C(=O)N/N=C/c1ccc([N+](=O)[O-])o1)CO2 (configuration not stated),inactive: 14.9%
15,COc1ccc(NC(=O)CC2(Cc3ccccc3)CCOC(C)(C)C2)cc1 (configuration not stated),inactive: 4.21%
16,Cc1cc(C(=O)N/N=C/c2cc(Br)cc([N+](=O)[O-])c2O)c2ccccc2n1,inactive: 14.3%
17,C/C(=N\NC(=O)CCn1nnc2ccccc21)c1cccs1,inactive: 2.47%
18,CC(=O)Nc1ccc(NC(=O)COC(=O)c2ccc(S(=O)(=O)NCc3ccco3)cc2)cc1,inactive: 1.33%
19,Cc1cc(NC(=O)COC(=O)[C@H](Cc2ccccc2)NC(=O)c2ccco2)no1,inactive: -8.81%
20,Cc1ccc(CNS(=O)(=O)c2ccc3c(c2)n(C)c(=O)n3C)cc1,inactive: -2.3%
21,COc1ccc(CNC(=O)CN(C)Cc2ccc(SC)cc2)cc1,inactive: 1.97%
